# Among all 360,000 compounds or so, about 16,000 (4.4%) were called active. Inconclusive results, whose numbers are uncertain, are shown with a selection of clear calls. Calls come from the whole dose curve; as a rule, active = well fitted inhibition curve with a large enough effect; inconclusive = small, poorly fitted or top-dose-only effect; inactive = no such curve, though single readings can be large or run the other way. Potencies of inconclusive entries are doubtful fits and often do not repeat.
# Biological target: Bromodomain adjacent to zinc finger domain protein 2B (Homo sapiens) (UniProt Q9UIF8)
# Test: qHTS Assay for Inhibitors of BAZ2B; note: nearly all actives have a fitted effect of over 60% in size
# Conditions: AlphaScreen BAZ2B-H3K14Ac peptide displacement; series mostly up to 114 µM
# Method in brief: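 AlphaScreen displacement: compounds (up to 110uM) incubated 30 min at room temperature with a preformed 50 nM BAZ2B/50 nM biotinylated H3K14Ac peptide complex in PBS pH 7.4 with Tween-20. Donor and acceptor beads at 10 ug/mL final added, 20 min light-protected before reading.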
# Potency is the fitted concentration of half-maximal effect; tags give direction and shape of the fitted curve.
# UniProt Q9UIF8, sequence (Q9UIF8 whole entry, looked up, the tested form may be a part): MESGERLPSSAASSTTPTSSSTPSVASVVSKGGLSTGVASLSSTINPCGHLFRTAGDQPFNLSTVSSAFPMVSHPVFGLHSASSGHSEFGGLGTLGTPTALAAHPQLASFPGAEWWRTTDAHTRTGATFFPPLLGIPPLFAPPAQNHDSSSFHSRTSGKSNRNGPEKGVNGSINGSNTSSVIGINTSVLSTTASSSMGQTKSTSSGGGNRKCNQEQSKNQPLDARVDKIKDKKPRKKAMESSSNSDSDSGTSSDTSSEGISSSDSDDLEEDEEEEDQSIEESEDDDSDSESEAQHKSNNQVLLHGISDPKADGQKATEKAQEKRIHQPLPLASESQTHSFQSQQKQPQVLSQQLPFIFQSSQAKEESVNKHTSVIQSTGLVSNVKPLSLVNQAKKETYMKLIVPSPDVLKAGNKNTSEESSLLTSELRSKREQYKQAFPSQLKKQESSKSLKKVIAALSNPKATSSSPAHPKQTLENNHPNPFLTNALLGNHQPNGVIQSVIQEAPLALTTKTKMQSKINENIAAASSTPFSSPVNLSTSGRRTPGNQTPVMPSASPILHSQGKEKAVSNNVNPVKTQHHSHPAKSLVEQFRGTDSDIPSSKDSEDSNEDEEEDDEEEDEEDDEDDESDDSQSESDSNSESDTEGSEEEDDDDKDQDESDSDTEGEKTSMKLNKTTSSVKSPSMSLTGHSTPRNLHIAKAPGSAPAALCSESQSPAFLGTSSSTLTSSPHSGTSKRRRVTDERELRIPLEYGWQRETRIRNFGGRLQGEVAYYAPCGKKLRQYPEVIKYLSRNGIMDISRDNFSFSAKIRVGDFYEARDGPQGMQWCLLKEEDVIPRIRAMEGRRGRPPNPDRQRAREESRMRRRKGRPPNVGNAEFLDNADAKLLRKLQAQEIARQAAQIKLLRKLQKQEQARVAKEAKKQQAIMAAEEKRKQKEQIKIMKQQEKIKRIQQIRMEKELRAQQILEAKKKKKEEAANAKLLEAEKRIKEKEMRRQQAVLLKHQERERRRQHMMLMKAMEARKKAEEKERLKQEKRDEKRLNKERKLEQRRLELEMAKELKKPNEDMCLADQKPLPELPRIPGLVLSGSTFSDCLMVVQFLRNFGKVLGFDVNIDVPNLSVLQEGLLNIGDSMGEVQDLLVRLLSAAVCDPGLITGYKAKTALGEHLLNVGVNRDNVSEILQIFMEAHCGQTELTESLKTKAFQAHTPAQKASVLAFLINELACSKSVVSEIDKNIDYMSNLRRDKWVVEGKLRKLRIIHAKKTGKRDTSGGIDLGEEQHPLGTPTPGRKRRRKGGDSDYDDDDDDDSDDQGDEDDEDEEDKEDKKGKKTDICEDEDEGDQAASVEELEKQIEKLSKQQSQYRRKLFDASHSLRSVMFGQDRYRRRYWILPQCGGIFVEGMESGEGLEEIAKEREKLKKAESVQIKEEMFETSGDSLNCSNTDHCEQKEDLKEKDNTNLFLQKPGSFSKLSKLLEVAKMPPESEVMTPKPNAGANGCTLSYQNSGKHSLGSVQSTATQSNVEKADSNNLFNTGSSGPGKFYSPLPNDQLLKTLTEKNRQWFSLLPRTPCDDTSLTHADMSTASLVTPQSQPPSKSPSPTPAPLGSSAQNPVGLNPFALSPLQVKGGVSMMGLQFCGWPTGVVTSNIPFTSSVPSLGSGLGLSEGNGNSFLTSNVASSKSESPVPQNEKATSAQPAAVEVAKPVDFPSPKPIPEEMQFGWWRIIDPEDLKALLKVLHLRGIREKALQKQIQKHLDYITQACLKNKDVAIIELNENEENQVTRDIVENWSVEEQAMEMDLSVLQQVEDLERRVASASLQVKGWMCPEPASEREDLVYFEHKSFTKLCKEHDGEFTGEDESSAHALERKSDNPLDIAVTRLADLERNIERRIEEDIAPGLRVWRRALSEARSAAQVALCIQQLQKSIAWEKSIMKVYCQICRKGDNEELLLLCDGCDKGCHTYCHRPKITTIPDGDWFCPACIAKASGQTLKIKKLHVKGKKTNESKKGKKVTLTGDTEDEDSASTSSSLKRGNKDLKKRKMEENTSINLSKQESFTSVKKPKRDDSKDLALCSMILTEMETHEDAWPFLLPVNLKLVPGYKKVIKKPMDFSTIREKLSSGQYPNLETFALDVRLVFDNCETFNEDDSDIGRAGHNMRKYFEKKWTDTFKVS
row,SMILES,Potency
1,Cc1cccc(NC(=O)c2cc(-c3ccco3)nc3ccccc23)n1,"inconclusive: 89.1 µM [inhibitor, single point]"
2,O=C(N/N=C/c1cccn1-c1ccc([N+](=O)[O-])cc1)c1cccnc1,"inconclusive: 50.1 µM [inhibitor, partial curve]"
3,COc1ccc(CNCCC(c2ccccc2)c2ccc3c(c2)OCO3)cc1 (stereo not drawn),"inconclusive: 79.4 µM [inhibitor, partial curve]"
4,O=c1c2ccccc2c(/C=N/n2cnnc2)c(O)n1-c1ccccc1,"inconclusive: 79.4 µM [inhibitor, single point]"
5,O=C(O)CC/C(=C\c1ccc(N2CCCC2)c([N+](=O)[O-])c1)c1nc2ccccc2s1,active: 39.8 µM
6,Cn1c(/C(C#N)=N/O)nc2ccccc21,active: 70.8 µM
7,O=C(Cc1cc(=O)oc2cc(O)ccc12)NC(Cc1ccc(Cl)cc1)C(=O)O (stereo not drawn),inactive
8,CC1Sc2ccc(S(=O)(=O)CCC(=O)Nc3ccccc3Cl)cc2NC1=O (stereo not drawn),inactive
9,CC(=O)c1ccc(NC(=O)Cn2cc(S(=O)(=O)Cc3ccccc3Cl)c3ccccc32)cc1,inactive
10,COc1ccccc1OCC(=O)Nc1ccccc1C(=O)NCc1ccco1,inactive
11,O=C(CN1C(=O)/C(=C/c2ccccc2)SC1=S)Nc1cccnc1,"inconclusive: 44.7 µM [inhibitor, partial curve, poor fit]"
12,O=C(O)CCS(=O)(=O)Cc1cccc(Cl)c1,inactive
13,C=CCn1c2ccccc2c(=O)c2cc(C#Cc3ccsc3)ccc21,"inconclusive: 89.1 µM [inhibitor, single point]"
14,COCC(=O)OC/C(O)=C(\C#N)c1nc2ccccc2[nH]1,"inconclusive: 2.24 µM [inhibitor, partial curve, poor fit]"
15,Oc1c(Cl)cc(Cl)c(Cl)c1Cc1c(O)c(Cl)cc(Cl)c1Cl,active: 50.1 µM
16,CC1=C(C(=O)OCc2ccccc2)C(c2ccccc2-c2ccccc2)NC(=O)N1CCCCCC(=O)O (stereo not drawn),active: 50.1 µM
17,COC(=O)c1sccc1S(=O)(=O)N(CC(=O)Nc1c(C)cccc1C)c1ccc(C)c(C)c1,inactive
18,N#C/C(=C\c1cccc([N+](=O)[O-])c1)C(=O)NCc1ccc(Cl)cc1,"inconclusive: 39.8 µM [inhibitor, full curve]"
19,COc1cc(C(=S)N2CCOCC2)cc(OC)c1OC(=O)c1ccc(C)cc1,inactive
20,CC1CCN(CCCCOc2ccccc2[N+](=O)[O-])CC1,"inconclusive: 39.8 µM [inhibitor, single point]"
21,CCC(CC)c1nnc(NC(=O)C2CC(=O)N(c3ccc4c(c3)OCCO4)C2)s1 (stereo not drawn),"inconclusive: 89.1 µM [inhibitor, single point]"
22,Cc1c(NC(=O)c2cccc3c(Cl)cccc23)cccc1-c1nc2ccccc2o1,inactive
23,CCCN(CCC)S(=O)(=O)c1ccc(C(=O)Nc2nnc(COC)o2)cc1,"inconclusive: 89.1 µM [inhibitor, single point]"

row,SMILES,Potency
1,COc1ccc(-c2sc(Nc3ccccc3)n[n+]2C)c(C)c1C,inactive
2,CCOC(=O)c1c(NC(=O)C2COc3ccccc3O2)sc2c1CC(C)(C)NC2(C)C (stereo not drawn),"inconclusive: 89.1 µM [inhibitor, single point]"
3,O=C(CCCCCC(=O)N(CCO)CCO)N(CCO)CCO,inactive
4,Cn1cccc1CC(=O)NNC(=S)Nc1ccc(F)cc1,inactive
5,CCCCC[C@H](O)/C=C/C1=C(CCCCCCC(=O)O)C(=O)CC1,"inconclusive: 79.4 µM [inhibitor, single point]"
6,CC(C)c1ccc(NC2CCCN(C(=O)c3ccc(N4CCOCC4)cc3)C2)cc1 (stereo not drawn),"inconclusive: 50.1 µM [inhibitor, partial curve]"
7,O=C(c1cnn(C(=O)c2ccc(O)cc2)c1)c1ccccc1O,"inconclusive: 44.7 µM [inhibitor, partial curve]"
8,COC(=O)c1ccc(NC(=O)CSc2ncc3c(n2)-c2cc(Cl)ccc2N(Cc2ccccc2)S3(=O)=O)cc1,inactive
9,Cc1ccc2c(=O)c(C(=O)c3ccc(Cl)cc3)cn(CC(=O)NC3CCCCC3)c2n1,inactive
10,CCOC(=O)/C(C#N)=C1\Nc2ccccc2N=C1N(CC(C)C)CC(C)C,"inconclusive: 89.1 µM [inhibitor, single point]"
11,CC(Oc1ccc(F)cc1)C(=O)Nc1ccc(N2CCOCC2)cc1N1CCOCC1 (stereo not drawn),inactive
12,CCN(CCCNC(=O)CSc1cc(=O)n(CC)c2ccccc12)c1cccc(C)c1,active: 22.4 µM
13,O=C(Nc1ccc(Nc2ccccc2)cc1)Nc1ccccc1Cl,active: 20 µM
14,C#CCOCCOCCOCCNc1nc(N2CCN(C(=O)[C@H](CCCCN)n3cc([C@@H](N)CO)nn3)CC2)nc(N2CCN(C(=O)[C@H](Cc3cc4ccccc4[nH]3)n3cc([C@@H](N)Cc4ccc(O)cc4)nn3)CC2)n1,active: 31.6 µM
15,C(=N\N1CCN(C2c3ccccc3-c3ccccc32)CC1)/c1cccs1,"inconclusive: 89.1 µM [inhibitor, single point]"
16,CC1CCCN(C(=O)c2sc3cc([N+](=O)[O-])ccc3c2Cl)C1 (stereo not drawn),active: 50.1 µM
17,CCCc1c(-c2ccc(O)cc2)nn(-c2ccc(O)cc2)c1-c1ccc(O)cc1,"inconclusive: 79.4 µM [inhibitor, single point]"
18,Clc1ccccc1OCCCCN1CCCCC1,"inconclusive: 89.1 µM [inhibitor, single point]"
19,O=C(COC(=O)c1c2ccccc2cc2ccccc12)NCC(F)(F)F,inactive
20,CC(C(=O)N=Nc1c(O)n(C)c2ccc(Br)cc12)n1cnc2ccccc2c1=O (stereo not drawn),"inconclusive: 12.6 µM [inhibitor, partial curve]"
21,O=C(O)c1ccc(Cl)c(S(=O)(=O)Nc2ccc3[nH]c(=O)[nH]c3c2)c1,"inconclusive: 79.4 µM [inhibitor, single point]"
22,C=CCOc1ccc(/C=C/C(=O)OCC(=O)N(C)CC(=O)Nc2ccccc2Cl)cc1,inactive
23,COc1cccc(-c2noc(CCC(=O)NC3CCCCC3)n2)c1,inactive

row,SMILES,Potency
1,CC(=N[C@@H]1CCCC[C@H]1N=C(C)c1ccccc1O)c1ccccc1O,"inconclusive: 31.6 µM [inhibitor, partial curve, poor fit]"
2,O=C(NC1CCN(Cc2ccccc2)CC1)c1ccc(Cn2c(=S)[nH]c3ccc(N4CCOCC4)cc3c2=O)cc1,"inconclusive: 8.91 µM [inhibitor, full curve]"
3,O=C(Nc1nc(-c2cccnc2)cs1)c1ccccc1[N+](=O)[O-],inactive
4,COc1cc(OC)c2c(O)c3c(c(-c4c5c(c(O)c6c(OC)cc(OC)cc46)CO[C@@H](C)[C@H]5O)c2c1)[C@H](O)[C@H](C)OC3,active: 44.7 µM
5,Oc1ccc(Br)cc1-c1cc(-c2ccco2)[nH]n1,"inconclusive: 70.8 µM [inhibitor, single point]"
6,Cc1ccc(-c2ccc(CCC(=O)O)n2-c2ccc(C(=O)O)cc2)cc1,"inconclusive: 56.2 µM [inhibitor, partial curve]"
7,O=C(CSc1nnc(CNC(=O)c2ccccc2)o1)NCCc1ccccc1,"inconclusive: 3.98 µM [inhibitor, single point]"
8,O=C(c1ccc(F)cc1)N1CCN(c2ccc([N+](=O)[O-])cc2-n2cccc2)CC1,"inconclusive: 79.4 µM [inhibitor, partial curve]"
9,CC(C)[C@H](NS(=O)(=O)c1cccc(Cl)c1)C(=O)OCC(=O)N1CCN(c2ccccc2)CC1,"inconclusive: 79.4 µM [inhibitor, single point]"
10,CCO[C@H]1OC(C(=O)N2CCN(Cc3ccc4c(c3)OCO4)CC2)=C[C@@H](c2csc3ccccc23)[C@@H]1CCCO,"inconclusive: 44.7 µM [inhibitor, partial curve]"
11,Cc1ccc(OC(=O)COc2ccccc2)c(-n2nc3ccccc3n2)c1,active: 56.2 µM
12,O=C(Nc1ccc(F)cc1F)c1ccc2c(O)c(S(=O)(=O)c3ccc(Cl)cc3)c(=O)[nH]c2c1,"inconclusive: 89.1 µM [inhibitor, single point]"
13,COc1cc(NC(=O)CSc2nc3nc(C)c(Cc4ccc(C)cc4)c(C)n3n2)cc(OC)c1OC,"inconclusive: 79.4 µM [inhibitor, single point]"
14,O=C(COC(=O)CCC(=O)c1cccs1)Nc1ccccc1[N+](=O)[O-],"inconclusive: 79.4 µM [inhibitor, partial curve]"
15,COc1ccc(-c2noc(CCC(=O)Nc3cc(Cl)c(OC)cc3OC)n2)cc1,"inconclusive: 15.8 µM [inhibitor, single point]"
16,O=C(COc1ncnc2ccccc12)N1CCOCC1,inactive
17,Cc1cccc(NC(c2ccc(O)cc2)c2ccc3ccc(C)nc3c2O)n1 (stereo not drawn),"inconclusive: 50.1 µM [inhibitor, partial curve]"
18,Cc1ccc2c(c1)c1c3n2CCN(C(=O)CCl)C3CCC1 (stereo not drawn),active: 56.2 µM
19,O=C1C2C3C=CC(C4CC34)C2C(=O)N1/N=C/c1ccc(-c2cccc([N+](=O)[O-])c2)o1 (stereo not drawn),"inconclusive: 44.7 µM [inhibitor, partial curve]"
20,COc1ccc(-c2noc(CNC(=O)Nc3ccc(F)cc3)n2)cc1,"inconclusive: 89.1 µM [inhibitor, single point]"
21,COc1ccc(CCNC(=O)CSc2ccc(-c3ccco3)nn2)cc1,"inconclusive: 79.4 µM [inhibitor, single point]"
22,Cc1ccc(-c2nn(-c3cccc(F)c3)cc2CNCCc2ccncc2)o1,"inconclusive: 25.1 µM [inhibitor, full curve]"

# — PubChem BioAssay AID504333 (National Center for Advancing Translational Sciences (NCATS), 2011)
